We go through seven molecules from publication PMC8053111, “MKRN3-mediated ubiquitination of Poly(A)-binding proteins modulates the stability and translation of GNRH1 mRNA in mammalian puberty” (Nucleic Acids Research, 2021).

Sequences of proteins named here, by UniProt entry; tags and fusion partners are left off.
UniProt P29341: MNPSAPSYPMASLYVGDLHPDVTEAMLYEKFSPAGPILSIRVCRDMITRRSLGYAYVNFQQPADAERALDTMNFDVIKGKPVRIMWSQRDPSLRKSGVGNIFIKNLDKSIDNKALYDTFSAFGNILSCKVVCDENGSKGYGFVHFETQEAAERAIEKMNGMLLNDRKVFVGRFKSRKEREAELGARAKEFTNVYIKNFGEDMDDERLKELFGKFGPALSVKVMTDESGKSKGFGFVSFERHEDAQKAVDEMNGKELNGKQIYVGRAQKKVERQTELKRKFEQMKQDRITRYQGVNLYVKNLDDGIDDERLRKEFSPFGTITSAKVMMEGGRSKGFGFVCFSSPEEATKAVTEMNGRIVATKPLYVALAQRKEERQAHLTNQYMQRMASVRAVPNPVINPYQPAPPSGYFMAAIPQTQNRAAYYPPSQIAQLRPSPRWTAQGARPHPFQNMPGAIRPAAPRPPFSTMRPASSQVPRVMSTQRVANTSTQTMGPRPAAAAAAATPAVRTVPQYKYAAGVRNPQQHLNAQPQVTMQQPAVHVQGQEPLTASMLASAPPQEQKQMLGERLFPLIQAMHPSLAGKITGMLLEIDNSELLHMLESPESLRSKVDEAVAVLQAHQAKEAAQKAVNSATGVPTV
UniProt Q96DU9: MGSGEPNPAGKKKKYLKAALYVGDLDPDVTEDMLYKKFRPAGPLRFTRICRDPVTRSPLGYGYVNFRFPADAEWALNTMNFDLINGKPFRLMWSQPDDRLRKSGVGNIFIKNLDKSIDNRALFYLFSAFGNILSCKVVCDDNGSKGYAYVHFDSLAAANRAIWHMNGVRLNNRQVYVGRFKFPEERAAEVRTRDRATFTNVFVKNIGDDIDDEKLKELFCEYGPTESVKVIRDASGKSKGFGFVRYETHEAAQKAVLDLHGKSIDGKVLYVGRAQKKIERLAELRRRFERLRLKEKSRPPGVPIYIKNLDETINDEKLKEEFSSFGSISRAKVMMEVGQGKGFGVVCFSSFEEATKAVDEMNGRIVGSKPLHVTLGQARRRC
UniProt Q9H361: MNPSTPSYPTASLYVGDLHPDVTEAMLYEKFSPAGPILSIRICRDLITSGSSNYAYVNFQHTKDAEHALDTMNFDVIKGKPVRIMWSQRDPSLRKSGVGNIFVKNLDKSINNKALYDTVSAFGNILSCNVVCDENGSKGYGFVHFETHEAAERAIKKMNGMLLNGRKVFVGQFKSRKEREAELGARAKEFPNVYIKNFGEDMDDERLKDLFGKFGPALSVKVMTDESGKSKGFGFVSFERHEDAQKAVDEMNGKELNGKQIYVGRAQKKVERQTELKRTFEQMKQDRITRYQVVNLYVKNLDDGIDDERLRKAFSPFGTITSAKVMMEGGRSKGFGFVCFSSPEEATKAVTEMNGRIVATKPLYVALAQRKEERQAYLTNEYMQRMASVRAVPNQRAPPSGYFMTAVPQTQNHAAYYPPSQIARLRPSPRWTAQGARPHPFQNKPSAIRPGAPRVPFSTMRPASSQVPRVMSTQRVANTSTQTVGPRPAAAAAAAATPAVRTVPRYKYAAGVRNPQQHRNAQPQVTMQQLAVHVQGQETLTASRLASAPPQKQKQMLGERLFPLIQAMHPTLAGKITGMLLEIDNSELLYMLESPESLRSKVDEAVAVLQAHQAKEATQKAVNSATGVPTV
UniProt P11940: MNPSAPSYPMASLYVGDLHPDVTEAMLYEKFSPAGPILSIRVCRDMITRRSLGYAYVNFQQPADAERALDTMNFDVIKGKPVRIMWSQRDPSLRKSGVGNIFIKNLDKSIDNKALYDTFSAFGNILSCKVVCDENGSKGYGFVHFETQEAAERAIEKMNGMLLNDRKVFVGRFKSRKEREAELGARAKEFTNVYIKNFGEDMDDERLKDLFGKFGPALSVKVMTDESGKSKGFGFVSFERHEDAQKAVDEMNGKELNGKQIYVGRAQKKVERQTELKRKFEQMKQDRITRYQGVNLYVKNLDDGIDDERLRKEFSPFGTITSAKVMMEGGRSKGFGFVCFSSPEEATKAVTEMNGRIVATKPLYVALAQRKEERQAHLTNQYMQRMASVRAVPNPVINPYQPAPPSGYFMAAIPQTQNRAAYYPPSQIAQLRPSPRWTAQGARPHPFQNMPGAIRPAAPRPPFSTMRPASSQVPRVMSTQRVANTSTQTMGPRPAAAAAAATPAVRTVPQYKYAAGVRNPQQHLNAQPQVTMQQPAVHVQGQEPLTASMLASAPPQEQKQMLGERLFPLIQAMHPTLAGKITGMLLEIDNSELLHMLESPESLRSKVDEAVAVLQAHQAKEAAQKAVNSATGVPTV
UniProt Q6NZJ6: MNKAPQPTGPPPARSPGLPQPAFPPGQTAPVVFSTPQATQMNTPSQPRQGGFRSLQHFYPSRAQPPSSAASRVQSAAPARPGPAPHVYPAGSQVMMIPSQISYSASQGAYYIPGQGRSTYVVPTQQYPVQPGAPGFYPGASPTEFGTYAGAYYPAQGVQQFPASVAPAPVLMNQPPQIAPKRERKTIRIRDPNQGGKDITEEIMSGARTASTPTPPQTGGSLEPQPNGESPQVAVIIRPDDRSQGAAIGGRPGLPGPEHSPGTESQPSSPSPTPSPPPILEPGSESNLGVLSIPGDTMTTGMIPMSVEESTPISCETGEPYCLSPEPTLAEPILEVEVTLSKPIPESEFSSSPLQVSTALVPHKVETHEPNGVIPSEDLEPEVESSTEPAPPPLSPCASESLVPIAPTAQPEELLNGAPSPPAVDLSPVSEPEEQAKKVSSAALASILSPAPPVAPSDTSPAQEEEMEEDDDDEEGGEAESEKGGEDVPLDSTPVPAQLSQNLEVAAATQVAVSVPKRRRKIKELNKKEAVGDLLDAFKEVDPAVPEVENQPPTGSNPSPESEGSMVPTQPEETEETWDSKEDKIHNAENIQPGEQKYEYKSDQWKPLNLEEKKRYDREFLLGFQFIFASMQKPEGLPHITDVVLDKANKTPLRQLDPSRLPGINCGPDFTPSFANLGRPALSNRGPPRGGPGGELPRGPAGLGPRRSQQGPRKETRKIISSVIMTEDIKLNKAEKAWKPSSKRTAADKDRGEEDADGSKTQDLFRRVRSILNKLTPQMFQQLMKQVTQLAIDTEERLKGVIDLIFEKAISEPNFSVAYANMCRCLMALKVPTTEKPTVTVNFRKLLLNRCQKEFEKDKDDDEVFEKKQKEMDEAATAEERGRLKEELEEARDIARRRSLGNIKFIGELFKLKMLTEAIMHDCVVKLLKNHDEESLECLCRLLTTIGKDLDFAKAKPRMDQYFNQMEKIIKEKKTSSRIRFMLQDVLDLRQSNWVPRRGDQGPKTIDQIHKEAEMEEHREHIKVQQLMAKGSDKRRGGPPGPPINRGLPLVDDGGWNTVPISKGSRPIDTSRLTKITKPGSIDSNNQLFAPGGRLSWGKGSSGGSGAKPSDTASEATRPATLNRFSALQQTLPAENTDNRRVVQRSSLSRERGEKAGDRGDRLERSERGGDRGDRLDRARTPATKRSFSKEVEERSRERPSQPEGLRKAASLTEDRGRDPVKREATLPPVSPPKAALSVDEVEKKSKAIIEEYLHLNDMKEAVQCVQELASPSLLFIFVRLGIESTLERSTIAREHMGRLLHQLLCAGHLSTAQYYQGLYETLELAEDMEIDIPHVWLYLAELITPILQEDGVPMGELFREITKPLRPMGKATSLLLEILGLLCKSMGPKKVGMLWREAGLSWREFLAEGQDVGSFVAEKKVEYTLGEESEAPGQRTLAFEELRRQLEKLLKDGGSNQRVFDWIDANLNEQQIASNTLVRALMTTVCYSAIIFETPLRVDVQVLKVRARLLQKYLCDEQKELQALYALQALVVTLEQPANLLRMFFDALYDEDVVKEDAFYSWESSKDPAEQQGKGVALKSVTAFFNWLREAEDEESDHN

Where two headings read alike, the source gives them in different places. These are yes or no findings as the source states them, for the method shown. For some of these results: Binding seen in cells or lysates may run through a third protein. Some entries that bind do so weakly or less than the wild type. For some of these results: Sequences can lack the tags named with a protein.

For experiment [1], the target named is T1, recombinant Gst-tagged MKRN3 (human) (UniProt Q13064).
T1 sequence: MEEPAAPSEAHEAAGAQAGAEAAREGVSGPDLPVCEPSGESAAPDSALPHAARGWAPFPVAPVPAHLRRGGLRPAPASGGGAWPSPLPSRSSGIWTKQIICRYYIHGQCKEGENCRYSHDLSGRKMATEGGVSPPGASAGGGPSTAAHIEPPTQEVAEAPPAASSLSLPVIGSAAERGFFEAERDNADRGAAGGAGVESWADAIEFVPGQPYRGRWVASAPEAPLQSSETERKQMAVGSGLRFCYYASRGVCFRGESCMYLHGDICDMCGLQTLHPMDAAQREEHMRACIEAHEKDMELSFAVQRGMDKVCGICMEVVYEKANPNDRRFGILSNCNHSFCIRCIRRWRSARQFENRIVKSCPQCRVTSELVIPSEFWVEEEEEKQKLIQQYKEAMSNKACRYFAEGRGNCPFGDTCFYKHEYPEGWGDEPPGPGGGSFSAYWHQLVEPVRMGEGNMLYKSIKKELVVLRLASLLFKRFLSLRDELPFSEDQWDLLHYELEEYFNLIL
In words: pull-down; GST pull-down: 20 μg purified Gst-MKRN or MKRN3 truncation, 20 μg PABP-His6 or truncation and Glutathione Sepharose 4B, 4°C overnight in 500 μl of 20 mM Tris-Cl, 100 mM NaCl, 5 mM MgCl2, 1 mM EDTA, 1 mM DTT, 0.5% NP-40, 10 μg/ml BSA, pH 7.5; five washes; Coomassie staining and anti-His immunoblot; both purified.

The target in experiment [2] is T2, 3XMyc tagged MKRN3 (human) (UniProt Q13064).
T2 sequence: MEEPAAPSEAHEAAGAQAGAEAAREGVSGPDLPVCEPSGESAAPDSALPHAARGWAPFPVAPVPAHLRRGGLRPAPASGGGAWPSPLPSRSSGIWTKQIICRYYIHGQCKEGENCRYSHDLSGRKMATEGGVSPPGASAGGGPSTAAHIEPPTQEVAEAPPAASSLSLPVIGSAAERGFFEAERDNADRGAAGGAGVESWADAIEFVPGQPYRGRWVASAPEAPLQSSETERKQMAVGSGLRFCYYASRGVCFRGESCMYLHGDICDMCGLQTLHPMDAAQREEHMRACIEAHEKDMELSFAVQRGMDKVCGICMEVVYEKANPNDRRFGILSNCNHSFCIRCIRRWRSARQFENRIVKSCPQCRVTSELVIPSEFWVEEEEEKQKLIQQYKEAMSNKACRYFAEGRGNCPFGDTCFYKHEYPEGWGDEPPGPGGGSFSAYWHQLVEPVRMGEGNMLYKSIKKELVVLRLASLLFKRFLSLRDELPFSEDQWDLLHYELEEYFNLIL
Briefly: co-IP; MKRN3 and PABP co-expressed in HEK293T; lysates in COIP buffer (50 mM Tris-HCl, 150 mM NaCl, 5 mM EDTA, 1% NP-40, pH 7.6) with or without RNaseA (50 μg/ml); anti-Myc antibody, immunoblot with anti-Myc or anti-Flag.

A further experiment has as its target T3, Gst-MKRN1 (UniProt Q9UHC7).
T3 sequence: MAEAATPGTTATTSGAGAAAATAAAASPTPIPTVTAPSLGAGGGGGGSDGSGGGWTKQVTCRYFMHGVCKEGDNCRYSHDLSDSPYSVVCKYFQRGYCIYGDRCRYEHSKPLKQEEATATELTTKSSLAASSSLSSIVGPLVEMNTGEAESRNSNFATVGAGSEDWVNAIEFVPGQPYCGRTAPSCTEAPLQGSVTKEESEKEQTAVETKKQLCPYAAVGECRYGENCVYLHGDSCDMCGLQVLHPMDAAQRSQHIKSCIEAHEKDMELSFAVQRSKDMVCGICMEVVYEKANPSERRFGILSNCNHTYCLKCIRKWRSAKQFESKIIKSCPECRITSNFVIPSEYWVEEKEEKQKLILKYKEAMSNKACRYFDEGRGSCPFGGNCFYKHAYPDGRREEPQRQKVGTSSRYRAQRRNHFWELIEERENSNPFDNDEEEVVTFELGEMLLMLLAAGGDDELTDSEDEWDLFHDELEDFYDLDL
In words: pull-down; GST pull-down: 20 μg purified Gst-MKRN or MKRN3 truncation, 20 μg PABP-His6 or truncation and Glutathione Sepharose 4B, 4°C overnight in 500 μl of 20 mM Tris-Cl, 100 mM NaCl, 5 mM MgCl2, 1 mM EDTA, 1 mM DTT, 0.5% NP-40, 10 μg/ml BSA, pH 7.5; five washes; Coomassie staining and anti-His immunoblot; both purified.

Experiment [3] addresses endogenous PABPC1 (mouse hypothalamus) (mouse (endogenous in hypothalamus)) (UniProt P29341). In words: co-IP; endogenous proteins; hypothalamic lysates of mice at postnatal day 15 (wild-type; for EIF4G1 also Mkrn3 m+/p- mice), with or without RNaseA (50 μg/ml); precipitated with anti-PABPC1 antibody (anti-IgG as control), immunoblot. On the technique in general: A western blot detects proteins with antibodies after separation by electrophoresis.

Experiment [4] has the same target. The experiment is described as above. This is another data set of the same source.

Turning to PABPC5-His6 (from UniProt Q96DU9 1-382), in experiment [1], the binding result is on record as “no binding (tested: 20 μg of each protein in 500 μl)”.

As for “Flag-tagged PABPC3 (from UniProt Q9H361 1-631)”, the binding entry in experiment [2] was “binds”.

With PABPC1-His6 (from UniProt P11940 1-636), the binding entry with Gst-MKRN1 is on record as “binds”. Take “endogenous EIF4G1 (mouse hypothalamus) (from UniProt Q6NZJ6 1-1600)”: in experiment [3], the binding result is “binds”.

For “Flag-tagged PABPC1 (from UniProt P11940 1-636)”, the binding entry in experiment [2] is recorded as “binds”.

B1: endogenous Mkrn3 (mouse hypothalamus) (protein, UniProt Q60764 1-544)
chain: MEESTAPIEAHAAAGAEAGAEGGEGVSVPPPPQFEAAGASAGVSSAPLQQASGLAPLLVTPGPAIRRAASLRPAPAEGGGARSGPERNSGSWTKQILCRYYLHGQCKEGDNCRYSHDLSGRRRSRGGQDAQPRASADRGPKMATRWEPPTQEVAEAPPAASSSSLPLIGSAAERGFTEAEIDNAGIRSAAERGFSEAEIDNASLAAGAAAGAGAEGWEGAIEFVPGQPYRGRMVPPHGPEAPLQSPAIEREHMAMGMGMPMPVPMPMPVPMPVPMPLPLCRYAARGQCLRGDRCAYPHGEICDMCGQQALHPWDAAQQEAHRRACVEAHERDMELSFAVQRSMDKVCGICMEVVYEKADPSDRRFGILFSCNHTYCLRCIRRWRSATQFENRISKSCPQCRVSSGFVIPSEFWVEEEEEKEKLVQQYKEGMSQKACRYFAGGLGHCPFGEFCFYKHEYPEGWRDQPPRPDGGGSSSAYWHQVLEPVQLREGNVLFKSRKKEHSVLRLANQLLKKLLCLRGSSSFSDDRWLLLQYQLEEYFSLNL
Turning to B1, the binding result in experiment [4] is reported as “binds”.

B2: exogenously expressed PABPN1 (protein, UniProt Q86U42 1-306)
chain: MAAAAAAAAAAGAAGGRGSGPGRRRHLVPGAGGEAGEGAPGGAGDYGNGLESEELEPEELLLEPEPEPEPEEEPPRPRAPPGAPGPGPGSGAPGSQEEEEEPGLVEGDPGDGAIEDPELEAIKARVREMEEEAEKLKELQNEVEKQMNMSPPPGNAGPVIMSIEEKMEADARSIYVGNVDYGATAEELEAHFHGCGSVNRVTILCDKFSGHPKGFAYIEFSDKESVRTSLALDESLFRGRQIKVIPKRTNRPGISTTDRGFPRARYRARTTNYNSSRSRFYSGFNSRPRGRVYRGRARATSWYSPY
As to B2, the binding result in experiment [2] was “no binding”.
